{"source": "paper PMC4336329", "about": "(PLoS ONE, 2015)", "note": "Among all 310,000 compounds or so, about 14,000 (4.5%) showed an effect of 50% or more. The effect is printed as a negative number. The list shows a part of the results.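 Note: peak tail current of the secondary pulse compared with the same well before compound.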"}
{"target": "human ether-à-go-go-related gene (hERG) potassium channel (human, UniProt Q12809)", "sequence (Q12809 whole entry, looked up)": "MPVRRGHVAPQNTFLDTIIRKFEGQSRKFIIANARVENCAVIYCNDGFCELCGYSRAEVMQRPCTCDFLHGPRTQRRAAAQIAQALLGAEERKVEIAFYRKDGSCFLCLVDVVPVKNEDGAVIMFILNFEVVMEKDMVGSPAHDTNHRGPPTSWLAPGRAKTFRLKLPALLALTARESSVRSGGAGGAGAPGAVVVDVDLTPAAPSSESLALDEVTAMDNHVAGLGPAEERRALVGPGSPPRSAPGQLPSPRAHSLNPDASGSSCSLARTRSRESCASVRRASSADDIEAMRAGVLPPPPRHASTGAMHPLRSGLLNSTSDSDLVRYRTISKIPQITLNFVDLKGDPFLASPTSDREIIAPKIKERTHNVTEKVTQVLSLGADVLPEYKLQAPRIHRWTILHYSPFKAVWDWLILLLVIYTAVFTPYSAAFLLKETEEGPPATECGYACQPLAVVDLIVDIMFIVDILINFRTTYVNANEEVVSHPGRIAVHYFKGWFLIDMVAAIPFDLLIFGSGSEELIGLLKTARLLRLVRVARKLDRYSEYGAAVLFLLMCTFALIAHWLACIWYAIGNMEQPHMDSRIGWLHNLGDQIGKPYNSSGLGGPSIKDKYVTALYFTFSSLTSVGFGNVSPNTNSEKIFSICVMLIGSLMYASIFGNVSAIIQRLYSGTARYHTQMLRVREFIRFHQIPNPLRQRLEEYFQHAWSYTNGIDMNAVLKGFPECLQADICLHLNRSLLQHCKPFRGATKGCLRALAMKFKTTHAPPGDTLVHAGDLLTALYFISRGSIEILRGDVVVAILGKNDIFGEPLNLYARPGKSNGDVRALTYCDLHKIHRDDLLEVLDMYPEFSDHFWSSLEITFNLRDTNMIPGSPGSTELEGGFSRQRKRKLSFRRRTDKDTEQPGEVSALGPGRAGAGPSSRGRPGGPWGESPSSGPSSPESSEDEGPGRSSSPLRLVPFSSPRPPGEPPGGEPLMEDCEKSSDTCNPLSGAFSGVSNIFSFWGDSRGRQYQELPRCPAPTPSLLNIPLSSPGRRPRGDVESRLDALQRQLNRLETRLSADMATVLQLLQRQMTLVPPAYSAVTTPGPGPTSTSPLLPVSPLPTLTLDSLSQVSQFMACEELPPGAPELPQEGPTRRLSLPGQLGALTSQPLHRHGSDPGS", "assay": "primary screen, population patch clamp on CHO cells stably expressing hERG", "units": {"hERG current change (%, negative = inhibition) at 10uM": "%"}}
{"smiles": "CCc1ccc(C2=CC(c3cc(Br)ccc3F)n3ncnc3N2)cc1", "note": "(stereo not shown)", "hERG current change (%, negative = inhibition) at 10uM": 8.07}
{"smiles": "CCOc1ccc(C(C)=O)cc1COC(=O)C1=COCCO1", "hERG current change (%, negative = inhibition) at 10uM": -8.39}
{"smiles": "Cc1ccc(-c2cnc(NC(=O)CCC(=O)N3CCCCC3)n2C)cc1", "hERG current change (%, negative = inhibition) at 10uM": -6.45}
{"smiles": "O=C(NCc1nc2ccccc2[nH]1)C1=C[C@@H](c2ccccc2)C[C@@H](OCc2ccc(CO)cc2)O1", "hERG current change (%, negative = inhibition) at 10uM": -64.9}
{"smiles": "CCCOc1ccccc1C(=O)Nc1ccc(S(=O)(=O)N2CCN(C)CC2)cc1", "hERG current change (%, negative = inhibition) at 10uM": -10.1}
{"smiles": "O=C(CC(SCCO)c1ccc2c(c1)OCO2)c1ccco1", "note": "(stereo not shown)", "hERG current change (%, negative = inhibition) at 10uM": 8.89}
{"smiles": "CCOC(=O)Cc1csc(NC(=O)Cc2cccs2)n1", "hERG current change (%, negative = inhibition) at 10uM": 6.28}
{"smiles": "Cc1cccc(NC(=O)NCCc2c[nH]c3ccccc23)c1", "hERG current change (%, negative = inhibition) at 10uM": -9.68}
{"smiles": "CSc1ncc(Cl)c(C(=O)Nc2cccc(Cl)c2)n1", "hERG current change (%, negative = inhibition) at 10uM": -8.43}
{"smiles": "CC1CCCCC1NC(=O)CN1CCC(O)(c2ccc3c(c2)OCO3)CC1", "note": "(stereo not shown)", "hERG current change (%, negative = inhibition) at 10uM": -6.59}
{"smiles": "Cc1cc([N+](=O)[O-])c(-c2ccc(/C=N/n3cnnc3)o2)cc1Cl", "hERG current change (%, negative = inhibition) at 10uM": -11.4}
{"smiles": "COc1cc(C(=O)OCCCN(C)C)cc(OC)c1OC.Cl", "hERG current change (%, negative = inhibition) at 10uM": 4.69}
{"smiles": "O=c1[nH]cnc2scc(-c3ccc(F)cc3)c12", "hERG current change (%, negative = inhibition) at 10uM": 0.0739}
{"smiles": "c1ccc(Nc2nc3ccccc3n3nnnc23)cc1", "hERG current change (%, negative = inhibition) at 10uM": -4.24}
{"smiles": "Cc1ccccc1-c1nc(CN2CCCC2c2ccc(F)cc2)c(C)o1", "note": "(stereo not shown)", "hERG current change (%, negative = inhibition) at 10uM": 19.8}
{"smiles": "Cc1ncc(C[n+]2csc(C)c2C)c(N)n1.Cl.[Cl-]", "hERG current change (%, negative = inhibition) at 10uM": 15.6}
{"smiles": "CC(=O)CC(C)(C)n1nnc(-c2ccccc2)n1", "hERG current change (%, negative = inhibition) at 10uM": 6.25}
{"smiles": "CC(OC(=O)Cn1c(C(F)(F)F)nc2ccccc21)C(=O)N1CCCc2ccccc21", "note": "(stereo not shown)", "hERG current change (%, negative = inhibition) at 10uM": -1.3}
{"smiles": "COc1ccc(S(=O)(=O)N2CCC(C(=O)NN3CCCCC3)CC2)cc1OC", "hERG current change (%, negative = inhibition) at 10uM": 2.01}
{"smiles": "COc1ccc(Nc2ncnc3ccccc23)cc1.Cl", "hERG current change (%, negative = inhibition) at 10uM": -2.07}
{"smiles": "COc1ccc(-c2ccc(SCC(=O)N3CCOCC3)nn2)cc1OC", "hERG current change (%, negative = inhibition) at 10uM": -9.16}
{"smiles": "CCOc1ccccc1NC(=O)CN(c1ccc(OC)cc1OC)S(=O)(=O)c1ccccc1[N+](=O)[O-]", "hERG current change (%, negative = inhibition) at 10uM": 18.2}
{"smiles": "COc1cc2nc(Cl)nc(NCCO)c2cc1OC", "hERG current change (%, negative = inhibition) at 10uM": -9.56}
{"smiles": "O=[N+]([O-])c1cccc(OCC(O)CN2CCN(S(=O)(=O)c3cc(Cl)ccc3Cl)CC2)c1", "note": "(stereo not shown)", "hERG current change (%, negative = inhibition) at 10uM": -31.3}
{"smiles": "O=C(COc1ccc(Cl)cc1)NNC(=O)c1ccccc1C(=O)O", "hERG current change (%, negative = inhibition) at 10uM": 16.2}
{"smiles": "CCCNC(=O)NC(C(=O)OC)C12CC3CC(CC(C3)C1)C2", "note": "(stereo not shown)", "hERG current change (%, negative = inhibition) at 10uM": -10.8}
{"smiles": "O=C(CCC1CCCN(C(=O)c2ccc3cc[nH]c3c2)C1)N1CCN(c2ccccn2)CC1", "note": "(stereo not shown)", "hERG current change (%, negative = inhibition) at 10uM": -5.79}
{"smiles": "O=c1c2sccc2nc(SCc2cc(=O)n3ccccc3n2)n1Cc1ccccn1", "hERG current change (%, negative = inhibition) at 10uM": -22.3}
{"smiles": "COc1ccc(NC(=S)N(Cc2cccc(Br)c2)CC2CCC(C(=O)O)CC2)cc1", "note": "(stereo not shown)", "hERG current change (%, negative = inhibition) at 10uM": -18.2}
{"smiles": "O=C(OC(C(=O)NCC1CCCO1)c1ccc(F)cc1)c1ccco1", "note": "(stereo not shown)", "hERG current change (%, negative = inhibition) at 10uM": 5.64}
{"smiles": "O=C(Cc1csc(-c2cccc(Cl)c2)n1)Nc1cccc(S(=O)(=O)NC2=NCCC2)c1", "hERG current change (%, negative = inhibition) at 10uM": -13.7}
{"smiles": "C=CCNC(=O)C(=O)Nc1ccc2c(c1)N(S(=O)(=O)c1cccs1)CCC2", "hERG current change (%, negative = inhibition) at 10uM": -14.7}
{"smiles": "COc1ccc(C2c3c(nc(C)[nH]c3=O)Oc3c2c(=O)oc2ccccc32)cc1", "note": "(stereo not shown)", "hERG current change (%, negative = inhibition) at 10uM": 13.7}
{"smiles": "CCOc1cccc(C(=O)N(Cc2ccc(F)cc2)C2CCS(=O)(=O)C2)c1", "note": "(stereo not shown)", "hERG current change (%, negative = inhibition) at 10uM": -24.8}
{"smiles": "CCOc1ccc(NC(=O)C2CCC(CNc3c(N4CCC(C)CC4)c(=O)c3=O)CC2)cc1", "note": "(stereo not shown)", "hERG current change (%, negative = inhibition) at 10uM": -1.24}
{"smiles": "CCOc1ccc(S(=O)(=O)N(CC)CC(=O)N2CCCC2)cc1", "hERG current change (%, negative = inhibition) at 10uM": 6.06}
{"smiles": "CN1CCN(NC(=O)CN(C)S(=O)(=O)c2cc(Cl)ccc2Cl)CC1", "hERG current change (%, negative = inhibition) at 10uM": 1.77}
{"smiles": "COc1ccccc1C(=O)Nc1ccc(C(=O)N2CCCCC2)cc1", "hERG current change (%, negative = inhibition) at 10uM": -9.76}
{"smiles": "CC1CCCN(S(=O)(=O)c2ccc(NC(=O)Cc3ccc(S(=O)(=O)N4CCOCC4)s3)cc2)C1", "note": "(stereo not shown)", "hERG current change (%, negative = inhibition) at 10uM": -15}
{"smiles": "Cn1cc([N+](=O)[O-])c(C(=O)Nc2sc3c(c2C#N)CCC3)n1", "hERG current change (%, negative = inhibition) at 10uM": 0.703}
{"smiles": "CCc1nnc(NS(=O)(=O)c2ccc(N/C=C/C(=O)c3ccc(OC)cc3)cc2)s1", "hERG current change (%, negative = inhibition) at 10uM": 8.4}
{"smiles": "Cc1ccc(NC(=O)C2OCCc3ccccc32)cc1C", "note": "(stereo not shown)", "hERG current change (%, negative = inhibition) at 10uM": -3.78}
{"smiles": "Cc1ccc(N(CC(=O)Nc2cc(C)cc(C)c2)S(=O)(=O)c2c(C)noc2C)cc1", "hERG current change (%, negative = inhibition) at 10uM": 6.82}
